# The whole screen tested about 350,000 compounds, of which about 9,900 (2.8%) were called active. Inconclusive results, whose numbers are uncertain, are shown with a selection of clear calls. Calls follow the shape of the dose curve; as a rule, active = well fitted activation curve with a large enough effect; inconclusive = small, poorly fitted or top-dose-only effect; inactive = no such curve, though single readings can be large or run the other way. No potency is given beside an inconclusive call; the fits are too rough.
# Experiment: A quantitative high throughput screen for small molecules that induce DNA re-replication in MCF 10a normal breast cells. Also: nearly all actives have a fitted effect of over 50% in size. As to activity, positive = re-replication: % of control where 0% means no effect.
# Details: MCF 10A DNA re-replication, Hoechst nuclear intensity, 48 h; activity, positive = re-replication: at 46.1 µM (top of the series)
# Potency is read from the fitted curve at half-maximal effect; tags tell the direction and shape of the fitted curve.
SMILES,"activity, positive = re-replication",Potency
COc1ccccc1N1CCN(Cc2cc(=O)c(OCC(=O)Nc3ccccc3)co2)CC1,inactive: 10.1%,–
CN(c1ccccc1)S(=O)(=O)c1ccc(C(=O)NCCc2ccc(F)cc2)cc1,–,"inconclusive [activator, partial curve, poor fit]"
Cc1cc(NS(=O)(=O)c2ccc(NC(=S)NC(=O)/C=C/c3ccccc3)cc2)no1,–,"inconclusive [activator, single point]"
COc1ccccc1NC(=O)c1cccc(S(=O)(=O)N2CCN(Cc3ccccc3)CC2)c1,inactive: 0.143%,–
O=C(/C=C/c1ccc(Br)cc1)c1ccco1,–,"inconclusive [activator, partial curve, poor fit]"
N#C/C(=C/C1=C(N2CCOCC2)C(=C/c2ccccc2)/CC1)C(=O)Nc1ccccc1F,–,"inconclusive [activator, partial curve, poor fit]"
CCC1Oc2ccc(C)cc2N(CC(=O)N2CCCC2)C1=O (configuration not stated),inactive: 10.7%,–
COC(=O)[C@H](Cc1ccccc1)NC(=O)N1CCCCCC1,inactive: -3.83%,–
Cc1nc(N2CCN(c3ccccn3)CC2)c2c(C)c(C(=O)Nc3ccc(F)cc3Cl)sc2n1,–,active: 16.4 µM
O=C(Nc1cc(C(F)(F)F)ccc1Cl)C(NCc1ccccc1)c1ccccc1 (configuration not stated),–,"inconclusive [activator, single point]"
O=C(c1cc(-c2ccccc2)n[nH]1)N1CCc2c([nH]c3ccccc23)C1c1ccccn1 (configuration not stated),–,"inconclusive [activator, partial curve]"
COc1ccc(NC(=O)CN(C)C(=O)c2c(C)nn(-c3ccccc3)c2Cl)cc1,–,"inconclusive [activator, partial curve, poor fit]"
Cn1sccc1=O,inactive: 6.39%,–
S=C1SCN(Cc2ccccn2)CN1Cc1ccco1,–,active: 4.11 µM
Cc1cc(C)c(C)c(S(=O)(=O)Nc2cccnc2)c1C,–,"inconclusive [activator, full curve, poor fit]"
CCC(CC)c1nnc(NC(=O)c2ccc([N+](=O)[O-])cc2)s1,inactive: -1.28%,–
O=C(NCCc1ccccc1Cl)c1cc(COc2ccc(F)cc2F)on1,–,"inconclusive [activator, full curve]"
CNC(=O)OCc1nc(SSC(C)(C)C)n(C)c1COC(=O)NC,–,active: 2.91 µM
O=[N+]([O-])c1ccc(Cl)c(S(=O)(=O)N2CCCCCC2)c1,inactive: 14.8%,–
CCn1nnc2cc(C(=O)Nc3cccc(S(=O)(=O)N(C)C)c3)ccc21,inactive: -1.07%,–
COC(=O)c1ccccc1NC(=O)C1CCCN(S(=O)(=O)c2ccc(OC)cc2)C1 (configuration not stated),–,"inconclusive [activator, partial curve, poor fit]"
CN(C)c1ccc(C=c2c3cc([N+](=O)[O-])ccc3n3c2cc(-c2ccccc2)[n+]3C)cc1,–,"inconclusive [activator, single point]"
Cc1ccc(-c2noc(CNC(=O)c3ccc4c(c3)OCO4)n2)cc1,–,"inconclusive [activator, single point]"
CC(=O)c1cccc(Nc2c([N+](=O)[O-])c(=O)oc3ccccc23)c1,–,"inconclusive [activator, single point]"

SMILES,"activity, positive = re-replication",Potency
Cc1nn(-c2ccccc2)c(Cl)c1/C=C(\C#N)C(=O)NC(C)C,–,active: 23.1 µM
COc1ccccc1C(=O)OCc1c(-c2ccccc2)ncc2ccccc12,–,"inconclusive [activator, single point]"
CCc1nnc(NC(=O)C2(C)COC(c3ccc(OC)cc3)OC2)s1 (configuration not stated),–,"inconclusive [activator, single point]"
COc1ccc(CN2CCC(CNC(=O)NC3CCCCC3)CC2)cc1,inactive: 7.34%,–
O=C(N/N=C/c1cc([N+](=O)[O-])ccc1O)c1cc(-c2ccccc2)nc2ccccc12,–,"inconclusive [activator, single point]"
CC(C)OC(=O)CSc1nc(N2CCOCC2)c2c(c1C#N)CC(C)(C)OC2,–,"inconclusive [activator, full curve, poor fit]"
COc1cccc(-c2cc(=O)c3cc(NC(=O)c4ccc(Cl)cc4)ccc3[nH]2)c1,–,"inconclusive [activator, full curve, poor fit]"
Nc1ccc(CNC(=O)OCC2c3ccccc3-c3ccccc32)cc1,–,"inconclusive [activator, partial curve, poor fit]"
O=C(COc1ccc2ccc(=O)oc2c1)Nc1cccc(S(=O)(=O)N2CCCCC2)c1,inactive: 4.2%,–
COc1ccccc1CNc1ncnc2c1cnn2-c1ccccc1,–,"inconclusive [activator, single point]"
CCOCCCN(C(=O)CCC(=O)Nc1cc(C)on1)C(C(=O)NC(C)(C)CC)c1cccc(OC)c1OC (configuration not stated),–,"inconclusive [activator, partial curve, poor fit]"
CC(NCc1ccc(OCc2ccc(Cl)cc2)cc1)C(O)c1ccccc1 (configuration not stated),–,active: 18.4 µM
Cc1ccc(S(=O)(=O)c2ccsc2NC(=O)c2ccccc2)cc1,inactive: 8.97%,–
CCc1ccc2oc(-c3cc(N)ccc3O)nc2c1,–,"inconclusive [activator, partial curve, poor fit]"
COc1ccc(-c2noc(CN(C)C(=O)c3ccc4c(c3)OCO4)n2)cc1OC,inactive: -2.33%,–
O=S(=O)(Nc1ccc(S(=O)(=O)Nc2nccs2)cc1)c1ccc2c(c1)OCCO2,–,active: 20.6 µM
Cc1nc2ccccc2n1CC(=O)NC1CCCCCC1,inactive: -0.374%,–
CC(=O)c1ccc(-c2ccc([C@H]3[C@@H]4C=CCC[C@@]4(C)C(=O)N3Cc3ccccc3)c(F)c2)cc1,–,"inconclusive [activator, full curve]"
O=C(CNC(=O)/C(=C\c1ccccc1)NC(=O)c1ccc(Br)cc1)OCc1ccccc1,–,"inconclusive [activator, single point]"
COc1ccc(-c2oc3ncnc(NCCCN(C)C)c3c2-c2ccc(OC)cc2)cc1,inactive: 10.6%,–
COc1cccc(-n2ccn(CC(=O)NCCc3ccccc3)c(=O)c2=O)c1,inactive: 5.75%,–
Cc1ccc(C)c(OCc2nc(-c3cccnc3)no2)c1,–,"inconclusive [activator, single point]"
CC(C)c1ccc(NC(=O)c2csnn2)cc1,inactive: 19.3%,–
COc1ccc(Cc2c(O)nc(SCC(=O)NC(C)(C)C)[nH]c2=O)cc1,inactive: 1.65%,–

SMILES,"activity, positive = re-replication",Potency
Clc1ccc(-c2nc(-c3cnccn3)no2)cc1,–,"inconclusive [activator, full curve, poor fit]"
CCOc1ccc(N2C(=O)C3=C(C(c4ccc(Cl)cc4)=NCCN3)C2c2cccnc2)cc1 (configuration not stated),–,"inconclusive [activator, partial curve, poor fit]"
CN(c1ccccc1)S(=O)(=O)c1ccc(Cl)c(C(=O)NCc2ccccc2CN2CCCC2)c1,inactive: 15.5%,–
CN1CCN(CCOc2ccc(Cl)c(Cl)c2)CC1,–,"inconclusive [activator, full curve, poor fit]"
COc1c(C)cccc1C(=O)NC(=S)Nc1ccccc1N1CCCC1,–,"inconclusive [activator, partial curve]"
Cc1cc2c(c(CO)c1CCO)C(=O)[C@@H](C)[C@@H]2O,inactive: -18.1%,–
COCCN(Cc1nc2ccccc2c(=O)[nH]1)C(=O)COc1c(C)cc(Cl)cc1C,inactive: -4.13%,–
C=CCn1c(COc2ccccc2)nnc1SCC(=O)C(C)(C)C,–,"inconclusive [activator, partial curve, poor fit]"
O=C1c2ccccc2C2=Nc3ccccc3SC(c3ccc(Cl)cc3)C12 (configuration not stated),–,"inconclusive [activator, single point]"
CC1CCCN(Cc2c(O)ccc3c(=O)c(-c4nc5ccccc5s4)c(N)oc23)C1 (configuration not stated),–,active: 20.6 µM
O=c1c2c3c(sc2ncn1/N=C/c1ccc(Br)o1)CCCC3,inactive: 4.92%,–
O=C(NC1CC2CCCC(C1)N2Cc1ccccc1)C1CCCCC1 (configuration not stated),inactive: -3.95%,–
Cn1c(=O)cc(OCCCC(=O)N2CCCCC2)c2ccccc21,–,"inconclusive [activator, partial curve, poor fit]"
CCOc1ccc(NC(=O)CN(C)CC(=O)Nc2ccc(F)c(F)c2F)cc1OCC,inactive: 3%,–
NC(=O)c1cccnc1,–,"inconclusive [activator, single point]"
Cc1cc(C)c(C)c(Cn2c(CO)nc3ccccc32)c1C,–,"inconclusive [activator, partial curve, poor fit]"
N#C/C(=C\c1c(Oc2ccccc2Cl)nc2ccccn2c1=O)C(=O)NC1CCS(=O)(=O)C1 (configuration not stated),–,"inconclusive [activator, single point]"
Cc1cc(C)n2nc(SCC(=O)Nc3ccccc3)nc2n1,inactive: 0.97%,–
CCCC(NS(=O)(=O)c1ccc(-c2ccc(=O)[nH]n2)s1)c1cccs1 (configuration not stated),inactive: 11.3%,–
N#Cc1ccc(C(=O)NNC(=O)c2ccncc2)cc1,inactive: -0.382%,–
CCOC(=O)c1c(-c2ccccc2)csc1NC(=O)/C(C#N)=C/c1ccc(OC)c(OC)c1,–,"inconclusive [activator, full curve]"
C1CCC2=NCCCN2CC1,–,"inconclusive [activator, partial curve, poor fit]"
Cc1ccc(-n2c(SCC(=O)OC(C)C)nnc2-c2ccco2)cc1,–,"inconclusive [activator, partial curve]"
CCOC(=O)C1=CSC2=NS(=O)(=O)CCN12,–,"inconclusive [activator, full curve, poor fit]"
